{"source": "paper PMC9911399", "about": "“Two distinct binding modes provide the RNA-binding protein RbFox with extraordinary sequence specificity”", "binders": {"B1": {"name": "ACGCGUG (DNA:RNA)", "RNA": "GGGAGACCGGAAUUCAGAUUGUCCACGCGUGUUAAAUCCCGUCGUAGCCACCA", "DNA 1": "CAATCTGAATTCCGGTCTCCC", "DNA 2": "TGGTGGCTACGACGGGATT"}, "B2": {"name": "GAUAGAU (DNA:RNA)", "RNA": "B1 RNA with A25G, C26A, G27U, C28A, U30A, G31U", "DNA 1": "CAATCTGAATTCCGGTCTCCC", "DNA 2": "TGGTGGCTACGACGGGATT"}, "B3": {"name": "GAAUCAC (DNA:RNA)", "RNA": "GGGAGACCGGAAUUCAGAUUGUCCGAAUCACUUAAAUCCCGUCGUAGCCACCA", "DNA 1": "CAATCTGAATTCCGGTCTCCC", "DNA 2": "TGGTGGCTACGACGGGATT"}, "B4": {"name": "AGAUACU (DNA:RNA)", "RNA": "B3 RNA with G25A, A26G, C29A, A30C, C31U", "DNA 1": "CAATCTGAATTCCGGTCTCCC", "DNA 2": "TGGTGGCTACGACGGGATT"}, "B5": {"name": "AACCCGA (DNA:RNA)", "RNA": "B1 RNA with C26A, G27C, G29C, U30G, G31A", "DNA 1": "CAATCTGAATTCCGGTCTCCC", "DNA 2": "TGGTGGCTACGACGGGATT"}, "B6": {"name": "CCCCGCU (DNA:RNA)", "RNA": "B1 RNA with A25C, G27C, U30C, G31U", "DNA 1": "CAATCTGAATTCCGGTCTCCC", "DNA 2": "TGGTGGCTACGACGGGATT"}, "B7": {"name": "AACAAGG (DNA:RNA)", "RNA": "B1 RNA with C26A, G27C, C28A, G29A, U30G", "DNA 1": "CAATCTGAATTCCGGTCTCCC", "DNA 2": "TGGTGGCTACGACGGGATT"}, "B8": {"name": "CACAGGC (DNA:RNA)", "RNA": "B3 RNA with G25C, A27C, U28A, C29G, A30G", "DNA 1": "CAATCTGAATTCCGGTCTCCC", "DNA 2": "TGGTGGCTACGACGGGATT"}, "B9": {"name": "CCCUAAU (DNA:RNA)", "RNA": "B3 RNA with G25C, A26C, A27C, C29A, C31U", "DNA 1": "CAATCTGAATTCCGGTCTCCC", "DNA 2": "TGGTGGCTACGACGGGATT"}, "B10": {"name": "GUGGCGC (DNA:RNA)", "RNA": "B3 RNA with A26U, A27G, U28G, A30G", "DNA 1": "CAATCTGAATTCCGGTCTCCC", "DNA 2": "TGGTGGCTACGACGGGATT"}, "B11": {"name": "AUGUUCG (DNA:RNA)", "RNA": "B1 RNA with C26U, C28U, G29U, U30C", "DNA 1": "CAATCTGAATTCCGGTCTCCC", "DNA 2": "TGGTGGCTACGACGGGATT"}, "B12": {"name": "UUUGGUU (DNA:RNA)", "RNA": "B1 RNA with A25U, C26U, G27U, C28G, G31U", "DNA 1": "CAATCTGAATTCCGGTCTCCC", "DNA 2": "TGGTGGCTACGACGGGATT"}, "B13": {"name": "CCUAGAU (DNA:RNA)", "RNA": "B1 RNA with A25C, G27U, C28A, U30A, G31U", "DNA 1": "CAATCTGAATTCCGGTCTCCC", "DNA 2": "TGGTGGCTACGACGGGATT"}, "B14": {"name": "ACGUCAC (DNA:RNA)", "RNA": "B3 RNA with G25A, A26C, A27G", "DNA 1": "CAATCTGAATTCCGGTCTCCC", "DNA 2": "TGGTGGCTACGACGGGATT"}, "B15": {"name": "CUAUGUC (DNA:RNA)", "RNA": "B3 RNA with G25C, A26U, C29G, A30U", "DNA 1": "CAATCTGAATTCCGGTCTCCC", "DNA 2": "TGGTGGCTACGACGGGATT"}, "B16": {"name": "UGGACUA (DNA:RNA)", "RNA": "B1 RNA with A25U, C26G, C28A, G29C, G31A", "DNA 1": "CAATCTGAATTCCGGTCTCCC", "DNA 2": "TGGTGGCTACGACGGGATT"}, "B17": {"name": "UAUAUCC (DNA:RNA)", "RNA": "B3 RNA with G25U, A27U, U28A, C29U, A30C", "DNA 1": "CAATCTGAATTCCGGTCTCCC", "DNA 2": "TGGTGGCTACGACGGGATT"}, "B18": {"name": "GACGACU (DNA:RNA)", "RNA": "B3 RNA with A27C, U28G, C29A, A30C, C31U", "DNA 1": "CAATCTGAATTCCGGTCTCCC", "DNA 2": "TGGTGGCTACGACGGGATT"}, "B19": {"name": "UCCGUUC (DNA:RNA)", "RNA": "B1 RNA with A25U, G27C, C28G, G29U, G31C", "DNA 1": "CAATCTGAATTCCGGTCTCCC", "DNA 2": "TGGTGGCTACGACGGGATT"}, "B20": {"name": "CUCCCGG (DNA:RNA)", "RNA": "B1 RNA with A25C, C26U, G27C, G29C, U30G", "DNA 1": "CAATCTGAATTCCGGTCTCCC", "DNA 2": "TGGTGGCTACGACGGGATT"}}, "note": "Where a chain is given by its changes, count along the chain named. Some of the results follow.", "data": [{"target": "T1, RBFOX1 RRM (Homo sapiens, UniProt Q9NWB1 109-208)", "T1 sequence": "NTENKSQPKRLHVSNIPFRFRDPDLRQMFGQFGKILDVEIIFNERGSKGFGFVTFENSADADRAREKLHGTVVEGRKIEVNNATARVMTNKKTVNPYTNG", "experiment": "EMSA; HiTS-Eq, 1 nM pool, 10 min; buffer printed only for the single-RNA assays: 10 mM Tris pH 7.5, 150 mM NaCl, 3.4 mM EDTA, 0.001% NP-40, 30 C", "conditions": "tags: His6 N-terminal (pET28a); label: 5' 32P", "method_in_brief": "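These values rest on relative association constants, computed from read-count changes of each RNA species versus the control reaction and normalised to the cognate motif. Reads came from free RNA recovered by 8% native PAGE after purified RbFox RRM (wild type or mutant) at increasing concentrations was equilibrated for 10 min in 50 µL with 1 nM of a 5′-radiolabelled pool with 7 randomized nucleotides and DNA-annealed flanks.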", "values": [{"binder": "B1", "binding signal": "0.0167 KA relative to UGCAUGU"}, {"binder": "B2", "binding signal": "0.0114 KA relative to UGCAUGU"}, {"binder": "B3", "binding signal": "0.00509 KA relative to UGCAUGU"}, {"binder": "B4", "binding signal": "0.00323 KA relative to UGCAUGU"}, {"binder": "B5", "binding signal": "0.00208 KA relative to UGCAUGU"}, {"binder": "B6", "binding signal": "0.00948 KA relative to UGCAUGU"}, {"binder": "B7", "binding signal": "0.00601 KA relative to UGCAUGU"}, {"binder": "B8", "binding signal": "0.00592 KA relative to UGCAUGU"}, {"binder": "B9", "binding signal": "0.00173 KA relative to UGCAUGU"}, {"binder": "B10", "binding signal": "0.0239 KA relative to UGCAUGU"}, {"binder": "B11", "binding signal": "0.017 KA relative to UGCAUGU"}, {"binder": "B12", "binding signal": "0.0216 KA relative to UGCAUGU"}, {"binder": "B13", "binding signal": "0.00849 KA relative to UGCAUGU"}, {"binder": "B14", "binding signal": "0.00303 KA relative to UGCAUGU"}, {"binder": "B15", "binding signal": "0.00955 KA relative to UGCAUGU"}, {"binder": "B16", "binding signal": "0.0214 KA relative to UGCAUGU"}, {"binder": "B17", "binding signal": "0.0025 KA relative to UGCAUGU"}, {"binder": "B18", "binding signal": "0.0112 KA relative to UGCAUGU"}, {"binder": "B19", "binding signal": "0.0107 KA relative to UGCAUGU"}, {"binder": "B20", "binding signal": "0.00764 KA relative to UGCAUGU"}]}]}
